Data reported in PMC4336329 (PLoS ONE, 2015).
Among all 310,000 compounds or so, about 2,200 (0.71%) showed an effect of 50% or more. Effects have a minus sign here. Some of the results follow.

target: human ether-à-go-go-related gene (hERG) potassium channel (human, UniProt Q12809); assay: primary screen, population patch clamp on CHO cells stably expressing hERG
Sequence (Q12809 whole entry, looked up): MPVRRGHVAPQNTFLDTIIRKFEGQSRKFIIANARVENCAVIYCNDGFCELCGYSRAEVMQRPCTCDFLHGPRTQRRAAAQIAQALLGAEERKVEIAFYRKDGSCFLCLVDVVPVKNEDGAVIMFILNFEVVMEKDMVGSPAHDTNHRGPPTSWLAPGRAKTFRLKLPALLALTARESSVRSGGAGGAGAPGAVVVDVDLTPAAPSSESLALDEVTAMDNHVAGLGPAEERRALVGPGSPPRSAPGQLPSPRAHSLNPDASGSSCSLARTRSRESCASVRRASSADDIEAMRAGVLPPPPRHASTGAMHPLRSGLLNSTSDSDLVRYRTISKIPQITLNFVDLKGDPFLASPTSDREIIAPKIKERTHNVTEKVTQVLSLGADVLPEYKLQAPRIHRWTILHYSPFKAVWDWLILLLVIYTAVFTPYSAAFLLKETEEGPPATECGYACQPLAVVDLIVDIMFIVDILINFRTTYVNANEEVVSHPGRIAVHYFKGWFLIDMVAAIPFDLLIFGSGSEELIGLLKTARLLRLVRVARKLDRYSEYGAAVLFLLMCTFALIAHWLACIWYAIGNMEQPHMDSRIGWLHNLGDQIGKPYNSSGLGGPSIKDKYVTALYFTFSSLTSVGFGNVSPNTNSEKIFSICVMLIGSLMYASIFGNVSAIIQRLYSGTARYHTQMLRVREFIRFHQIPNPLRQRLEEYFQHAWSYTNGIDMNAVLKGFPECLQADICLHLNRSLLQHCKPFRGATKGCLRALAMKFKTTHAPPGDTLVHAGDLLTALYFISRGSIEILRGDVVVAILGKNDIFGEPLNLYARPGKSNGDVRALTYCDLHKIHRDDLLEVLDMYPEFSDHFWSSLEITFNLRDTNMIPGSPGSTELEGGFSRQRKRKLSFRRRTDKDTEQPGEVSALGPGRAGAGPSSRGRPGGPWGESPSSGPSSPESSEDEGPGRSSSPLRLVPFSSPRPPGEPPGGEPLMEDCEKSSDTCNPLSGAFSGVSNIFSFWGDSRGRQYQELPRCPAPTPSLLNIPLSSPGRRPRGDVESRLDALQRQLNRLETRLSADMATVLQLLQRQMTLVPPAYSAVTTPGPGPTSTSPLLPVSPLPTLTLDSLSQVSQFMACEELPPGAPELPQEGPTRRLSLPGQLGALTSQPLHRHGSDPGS

SMILES | hERG current change (%, negative = inhibition) at 1uM [%]
COc1ccc(-c2cc(C(=O)NCCCn3ccnc3)c3ccccc3n2)c(OC)c1 | 6.7
CC(C)=C(NC(=O)c1ccccc1)C(=O)N1CCOCC1 | 6.8
COc1ccccc1N1CCN(c2ccc(N3C(=O)CCC3=O)cc2[N+](=O)[O-])CC1 | 12.9
COc1ccccc1N1CCN(S(=O)(=O)Cc2ccccc2Cl)CC1 | 11.9
CCOC(=O)C1(Cc2ccccc2)CCN(Cc2nccn2CC)CC1 | 8.81
COc1cc(NC(=O)c2cccs2)c(OC)cc1NC(=O)CCC(=O)Nc1cccc2ncccc12.Cl | 6.33
C/C(=N/NC(=O)c1cccs1)c1ccc(N2CCOCC2)cc1 | 13.5
CC1(C)CC(CCNC(=O)CCl)(c2ccccc2)CCO1 (stereo not shown) | 16.4
O=C(N/N=C/C=C/c1ccccc1[N+](=O)[O-])c1cc(-c2cccnc2)nc2ccccc12 | -0.706
Cc1ccc(/C=N/NC(=O)Cn2nc(C)c([N+](=O)[O-])c2C)o1 | 12.6
COC(=O)c1sc(C(F)(F)F)c(-c2ccccc2)c1S(=O)(=O)NC(C)(C)C | 6.34
CC1=C(C(=O)OC(C)C)C(c2coc3ccccc3c2=O)C2=C(CCCC2=O)N1 (stereo not shown) | 13.8
Cc1onc(-c2ccccc2)c1C(=O)N/N=C/C=C/c1ccccc1 | 12.9
CC(C)NC(=O)CN(Cc1ccc2c(c1)OCO2)C(=O)CCC(=O)Nc1ccccn1 | 9.94
Cc1cc(C)n(-c2nc3c(c(=O)[nH]c(=O)n3C)n2Cc2ccc(F)cc2)n1 | 2.14
Cc1c(Cl)c([N+](=O)[O-])nn1Cc1ccc(C(=O)NN)o1 | 1.95
Cc1cc(C)c2[nH]c(=O)c(CN(CC3CCCO3)C(=O)c3cnccn3)cc2c1 (stereo not shown) | -12.6
O=C(Nc1cccc(C(F)(F)F)c1)Nn1cnnc1 | 19
COc1ccc(CNC(=O)CNC(=O)c2cccs2)c(OC)c1 | 15.9
O=C(CN(CCc1ccccc1)S(=O)(=O)c1ccc(Cl)cc1)N/N=C/c1ccccc1C(=O)O | 10.3
Cc1ccc(C2=N/C(=C\c3cccnc3)C(=O)O2)cc1 | 3.52
COc1ccc(C(=O)C2CCCN(Cc3cnc(N4CCOCC4)s3)C2)cc1F (stereo not shown) | -17.9

SMILES | hERG current change (%, negative = inhibition) at 1uM [%]
Cc1cc(NC(=O)c2ccc3c(c2)C(=O)N(Cc2cccnc2)C3=O)no1 | 16.6
COc1ccccc1CNC(=O)CSc1nc2c(oc3ccccc32)c(=O)n1CC1CCCO1 (stereo not shown) | 6.02
O=C(N/N=C/c1ccc(Cl)c([N+](=O)[O-])c1)c1cc(-c2ccccc2)nc2ccccc12 | 14.1
COc1cc(/C=N/NC(=O)COc2ccc(Cl)cc2)ccc1OS(=O)(=O)c1ccc(C)cc1 | 17.4
O=C(Nc1ccc2c(c1)CCC2)c1cccc(F)c1 | 2.91
COc1ccc(CNC(=O)COC(=O)/C=C/c2cccc(Br)c2)cc1 | 14.8
CCCCCOC(=O)c1cc(=O)[nH]c2ccccc12 | 11.9
COc1cc(NS(=O)(=O)c2ccc(NC(=S)NC(=O)c3ccccc3)cc2)nc(OC)n1 | 2.03
Cc1cc(=O)n2nc(N3CCCC3C(=O)Nc3ccc(C(C)C)cc3)sc2n1 (stereo not shown) | 4.13
O=C(CC1Nc2ccccc2NC1=O)Nc1cc(Cl)cc(Cl)c1 (stereo not shown) | 6.36
CCOC(=O)CCCNC(=O)COC(=O)c1cc(Br)c(Br)s1 | 9.38
O=C(OCC#CCSc1nnc(-c2cccc3ccccc23)o1)c1ccco1 | -6.89
CCCCC(=O)c1c(O)c2ccccc2oc1=O | 16.3
CCC(C(=O)OC)n1cnc2c(nnn2-c2ccc(OC)cc2)c1=O (stereo not shown) | 2.6
CCN(CC)c1ccc(NC(=O)C2=CCN(S(=O)(=O)c3ccc(F)cc3)CC2)c(C)c1 | 11.2
NC(=O)c1nsc(C(=O)N(c2ccccc2)C(C(=O)NC2CCCC2)c2ccc3ncccc3c2)c1N (stereo not shown) | 15.3
Cc1cc(C(=O)Nc2c(F)c(F)c(F)c(F)c2F)n(-c2ccccc2)n1 | -19.3
Cc1ccc(CO/N=C/c2c(O)cc(C)oc2=O)cc1 | 17
Cc1cc(C)c(S(C)(=O)=O)c(Oc2ccccc2C)n1 | 17.9
O=C1c2cccc3cccc(c23)C(=O)N1CCN1CCN(CC(O)COc2ccccc2)CC1 (stereo not shown) | -29.1
COc1ccc(OC)c(S(=O)(=O)NCc2ccccc2)c1 | -7.58
Cc1ccc(OCC(=O)N2CCCc3ccccc32)cc1 | 9.17

SMILES | hERG current change (%, negative = inhibition) at 1uM [%]
COc1ccc(N2CCN(C(=O)C3CCN(S(=O)(=O)c4ccc5c(c4)oc(=O)n5C)CC3)CC2)cc1 | 6.2
COc1ccccc1N1CCN(C(=O)c2ccoc2C)CC1 | 2.23
CCNC(=S)N1CCN(CC)CC1.O=C(O)C(=O)O | 5.42
CC(=O)Nc1ccc2nc3c(=O)n(C)c(=O)n(C)c3nc2c1 | -6.43
CC(C)N(C)CCOC(=O)C1COc2ccccc2O1.Cl (stereo not shown) | 15.6
CCN(CC)S(=O)(=O)c1ccc2[nH]c(=O)cc(C(=O)Nc3ccccc3N3CCOCC3)c2c1 | 3.38
Cc1nn(-c2ccccc2)c(Cl)c1C1C(C#N)=C(N)OC2=C1C(=O)CCC2 (stereo not shown) | 5.31
O=C(NCCCN1CCOCC1)c1sc2ccccc2c1Cl | 8.84
O=C(CN(C(=O)CNS(=O)(=O)c1ccccc1)c1ccc(F)cc1)NCc1ccco1 | 15.6
O=C(c1ccc2ccccc2n1)N(CCO)Cc1ccccc1 | 13.3
O=C(N/N=C/c1cccc(F)c1)c1csc2c1CCCC2 | -11.3
COc1ccc(Cl)cc1NC(=O)Nc1cccc([N+](=O)[O-])c1C | 14.7
Cc1ccc(NC(=O)NCc2cccnc2)cc1Cl | 12.2
Cc1cc(C)n(CNc2nc(C(F)(F)F)cs2)n1 | 5.41
Cc1c(Cl)cccc1NC(=S)NCC(C)C | 9.6
COc1ccccc1N1CCN(Cc2cc(=O)n3ccsc3n2)CC1 | 13.5
Nc1cccc(Oc2ccc3c(c2)C(=O)N(CC2CCCO2)C3=O)c1 (stereo not shown) | 12.6
Cn1c(CSc2ccccc2)c(C#N)c2ccccc21 | 1.49
CCCCN(C)C(=O)c1nc2ccccn2c1CN1CCN(C(=O)c2cccs2)CC1 | -21
Cc1nn(-c2ccc(F)cc2)c(Cl)c1C(=O)N(C)CC(=O)Nc1cccc(F)c1 | 9.09
N#Cc1c(-c2ccccc2Cl)cc(-c2ccccc2)nc1Br | 16.8
COc1ccc(C2(C)CC(C)(C)Nc3ccccc32)cc1 (stereo not shown) | 14.3

SMILES | hERG current change (%, negative = inhibition) at 1uM [%]
Cc1[nH]c2ccccc2c1SCC(=O)NNC(=O)Nc1ccc(OC(F)(F)F)cc1 | 19.4
C/C(=N\NC(=O)c1ccc(N)cc1)C1CC1 | 14.5
Cc1nc(-c2cccc(NC(=O)c3cccc(S(=O)(=O)N4CCCC4)c3)c2)cs1 | 2.64
Cc1cc(=O)oc(C)c1C(=O)N[C@@H]1CCCCNC1=O | 11.2
CC1(C)NC(=O)N(CCSc2ccc(Cl)cc2)C1=O | 15
CCOc1cccc2c1OC(c1cc(OC)c(OC)c(OC)c1)N1N=C(c3ccc(C)o3)CC21 (stereo not shown) | 12.6
O=C(COC(=O)c1cn(-c2ccccc2)nc1-c1cccnc1)NC1CC1 | 8.66
CCc1ccccc1N(CC(=O)NCCSCc1ccco1)S(C)(=O)=O | -5.51
CC(C)N1C(=O)CCC1C(=O)NC1CCCC1 (stereo not shown) | -0.75
CC(C)c1ccc(NC(=O)CSc2ncccc2C(=O)Oc2cccc([N+](=O)[O-])c2)cc1 | 7.96
CCCn1c(SCC(=O)Nc2cc(Cl)ccc2OC)n[nH]c1=O | 3.15
CCc1noc(C)c1C(=O)Nc1cc(C(F)(F)F)ccc1-n1cncn1 | 1.31
CC1(C)CC(=O)C2=C(C1)N1C(=C(C#N)C2c2ccccc2Cl)N=C(N)c2ccccc21 (stereo not shown) | -6.37
Fc1ccccc1N1CCN(CCCc2ccccc2)CC1 | -18.4
COc1cc(-c2n[nH]c(=S)n2-c2ccc(Br)cc2)cc(OC)c1OC | 6.8
Cc1cccc(OCC2=NS(=O)(=O)c3ccccc3N2)c1 | -3.55
Cc1cccn2c(=O)c(C=O)c(N3CC(C)OC(C)C3)nc12 (stereo not shown) | 15.5
Cc1cc(Cl)ccc1NC(=S)NCc1ccccc1 | 10.7
COc1cc2c(cc1OC)CN(Cc1ccc(F)cc1)CC2 | 3.91
S=C(NCCc1cccc(Cl)c1)NC1CCCCC1 | 21.9
O=C(O)C1(P(=O)(c2ccccc2)c2ccccc2)CCC1 | 1.7
COc1ccc(C(=O)NCc2ccc(Cl)cc2)cc1S(=O)(=O)N1CCCC1 | 7.16
